Measurements published in PubChem BioAssay AID588342 (National Center for Advancing Translational Sciences (NCATS), 2011).
Screen size: about 360,000 compounds; about 25,000 (6.9%) were called active. Inconclusive results, whose numbers are uncertain, are shown with a selection of clear calls. Calls follow the shape of the dose curve; as a rule, active = well fitted inhibition curve with a large enough effect; inconclusive = small, poorly fitted or top-dose-only effect; inactive = flat fitted curve, though single readings scatter. Where the call is inconclusive, the potency comes from a doubtful curve fit.

Target: Luciferin 4-monooxygenase (Photinus pyralis) (UniProt P08659)
Chain of UniProt P08659 (P08659 whole entry, looked up): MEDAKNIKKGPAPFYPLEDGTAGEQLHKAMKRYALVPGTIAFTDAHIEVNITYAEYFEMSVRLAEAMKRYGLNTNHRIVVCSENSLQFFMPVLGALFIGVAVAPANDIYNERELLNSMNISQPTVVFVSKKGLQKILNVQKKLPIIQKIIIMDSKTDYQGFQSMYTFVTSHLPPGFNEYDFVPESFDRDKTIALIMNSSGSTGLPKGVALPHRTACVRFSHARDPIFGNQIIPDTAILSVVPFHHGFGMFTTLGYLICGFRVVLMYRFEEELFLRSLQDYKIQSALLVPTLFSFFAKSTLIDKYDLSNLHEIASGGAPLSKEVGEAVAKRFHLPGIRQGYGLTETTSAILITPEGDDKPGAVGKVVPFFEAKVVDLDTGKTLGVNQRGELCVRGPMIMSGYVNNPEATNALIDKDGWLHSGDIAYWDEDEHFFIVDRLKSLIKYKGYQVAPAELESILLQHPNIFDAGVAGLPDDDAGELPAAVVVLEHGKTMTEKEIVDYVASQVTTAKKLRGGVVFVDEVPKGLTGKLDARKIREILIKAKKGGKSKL
Test: qHTS profiling assay for firefly luciferase inhibitor/activator using purifed enzyme and Km concentrations of substrates (counterscreen for miR-21 project); also: nearly all actives have a fitted effect of over 55% in size
Settings: purified FLuc, luminescence inhibition; series mostly up to 57.5 µM
Outline: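 Biochemical qHTS of compounds, final roughly 60 µM downward over six points, against 10 nM purified firefly luciferase using Km concentrations of substrates (10 uM D-luciferin, 10 uM ATP) in Tris acetate pH 7.5 buffer; luminescence output.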
Potency is read from the fitted curve at half-maximal effect; tags tell the direction and shape of the fitted curve.

Row | SMILES | Potency
1 | Cc1cccc(-c2nnc(C3CCN(S(=O)(=O)c4cccc(Cl)c4)CC3)o2)c1 | inconclusive: 5.36 µM [inhibitor, partial curve, poor fit]
2 | Cc1cc(C)c(C(=O)CSc2nnc(N)s2)c(C)c1 | inactive
3 | Cc1ccc(-c2[nH]c(-c3ccc(C(=O)O)cc3)nc2-c2ccccc2)cc1 | inconclusive: 37.9 µM [inhibitor, single point]
4 | CC(C)CNC(=O)c1cccc(NC(=O)CSc2ccc(Cl)cc2)c1 | inconclusive: 30.1 µM [inhibitor, partial curve, poor fit]
5 | Cc1ccc(NC(=S)N2CCCCC2CO)cc1C (stereo not drawn) | inconclusive: 23.9 µM [inhibitor, partial curve]
6 | Cc1ccc(NC(=O)c2ccc3c(c2)OCCO3)cc1 | active: 0.536 µM
7 | CC(=O)CSc1nnc2[nH]c(=O)cc(N)n12 | inactive
8 | CCc1ccc(NC(=O)N[C@H](C(=O)O)C(C)CC)cc1 (stereo partly drawn) | inconclusive: 21.3 µM [inhibitor, partial curve, poor fit]
9 | CN(c1nc2ccccc2nc1Cl)S(=O)(=O)c1ccccc1 | inconclusive: 23.9 µM [inhibitor, single point]
10 | CCc1nc(SCc2ccc(Br)cc2)n[nH]1 | inconclusive: 23.9 µM [inhibitor, partial curve]
11 | CCOC(=O)C(CC(=O)Nc1nc(C(C)=O)c(C)s1)C(C)c1ccccc1 (stereo not drawn) | inactive
12 | CCOC(=O)c1sc(=NC(=O)c2ccc(F)cc2)n(C)c1C | active: 0.675 µM
13 | Cc1sc2nc(COC(=O)CNC(=O)c3ccc(C(C)(C)C)cc3)[nH]c(=O)c2c1C | inconclusive: 15.1 µM [inhibitor, partial curve]
14 | COc1ccc(C)cc1Nc1nc(-c2c[nH]c3ccccc23)cs1 | inconclusive: 16.9 µM [inhibitor, partial curve]
15 | CO/N=C/C(C(C)=O)C(=O)Nc1ccc(Cl)cc1Cl (stereo not drawn) | inconclusive: 23.9 µM [inhibitor, single point]
16 | Cn1c(=O)c2cn(-c3ccc4c(c3)OCCO4)cc2n(C)c1=O | inconclusive: 7.57 µM [inhibitor, partial curve]
17 | COc1ccc(CCNC(=O)C2CCCN(c3nc4ccccc4s3)C2)cc1OC (stereo not drawn) | inactive
18 | O=C(NC(Cc1c[nH]c2ccccc12)C(=O)NCCCN1CCOCC1)c1cccs1 (stereo not drawn) | inactive
19 | CCN(CC)c1ccc(-c2nc(-c3ccccc3C)no2)cc1[N+](=O)[O-] | inconclusive: 21.3 µM [inhibitor, single point]
20 | CC(C)(C)c1ccc(C(=O)C=[N+]=[N-])cc1 | inconclusive: 26.9 µM [inhibitor, partial curve]
21 | CCCc1cc(=O)oc2c3c(cc(OCC(=O)NCc4ccncc4)c12)OC(C)(C)CC3 | inconclusive: 37.9 µM [inhibitor, partial curve, poor fit]
22 | CCN(CC)c1ccc(/C=N/Nc2nc(C)cc(=O)[nH]2)c(O)c1 | inconclusive: 13.5 µM [inhibitor, partial curve]
23 | S=c1[nH]nc(CSc2nc3ccccc3s2)o1 | inconclusive: 33.8 µM [inhibitor, single point]
24 | O=C(NCCc1ccccc1)c1oc2ccccc2c1COc1ccccc1 | inconclusive: 16.9 µM [inhibitor, partial curve, poor fit]
25 | COc1ccc2c(c1)CCc1c(C(=O)Nc3ccc(OC)c(OC)c3)noc1-2 | active: 2.39 µM

Row | SMILES | Potency
26 | Cc1ccc(SCc2cc(=O)c3c(=O)n(-c4ccccc4)[nH]c3[nH]2)cc1 | inconclusive: 19 µM [inhibitor, partial curve, poor fit]
27 | O=C(NCCc1ccccc1Cl)c1ccc2c(c1)nc1n2CCCCC1 | active: 0.536 µM
28 | O=C(Nc1ccccc1)/C(=C1\CCCN1)[N+](=O)[O-] | inactive
29 | O=S(=O)(Nc1ncccn1)c1ccc(NS(=O)(=O)c2cc(Cl)ccc2Cl)cc1 | inconclusive: 23.9 µM [inhibitor, single point]
30 | Cc1ccsc1C(=O)OC1CCOC1=O (stereo not drawn) | inactive
31 | CC(C)c1ccc(OC(=O)c2cc(-c3ccccc3)on2)cc1 | inconclusive: 9.53 µM [inhibitor, partial curve, poor fit]
32 | CC(C)=NOC(=O)c1ccc(-c2ccccc2)cc1 | active: 8.49 µM
33 | COc1ccc(CN2CCNC(=O)C2CC(=O)NCCN2CCCCC2=O)c(F)c1 (stereo not drawn) | inactive
34 | O=C(COc1ccccc1O)Nc1ccc(Cl)cc1 | inconclusive: 26.9 µM [inhibitor, single point]
35 | O=C(c1cc(COc2c(F)cccc2F)on1)N1CCC(c2ccccc2Cl)C1 (stereo not drawn) | inconclusive: 19 µM [inhibitor, partial curve]
36 | O=C(NCC(=O)N1CCN(c2ccccc2O)CC1)c1ccccc1 | inconclusive: 37.9 µM [inhibitor, single point]
37 | CCOc1cccc(/C=N/NS(=O)(=O)c2ccc(C)c([N+](=O)[O-])c2)c1O | inconclusive: 16.9 µM [inhibitor, partial curve]
38 | O=C(OCC(=O)N1CCc2ccccc21)c1cccnc1Cl | active: 10.7 µM
39 | C=CCn1cccc(C(=O)Nc2cc(OC)cc(OC)c2)c1=O | inconclusive: 30.1 µM [inhibitor, single point]
40 | O=c1cc(-c2ccccc2)n2c(SCc3ccc(F)cc3)nnc2[nH]1 | inconclusive: 9.53 µM [inhibitor, partial curve]
41 | COc1ccc2[nH]cc(C(=O)NCCc3ccccc3)c(=O)c2c1 | inactive
42 | COc1ccc(CNc2oc(-c3ccc(COc4ccccc4C)o3)nc2C#N)cc1 | inactive
43 | COc1cc2[nH]c3ccccc3c2cc1C | inconclusive: 26.9 µM [inhibitor, partial curve]
44 | CC(NC(=O)c1ccccc1Cl)C(=O)Nc1ccc2c(c1)OCO2 (stereo not drawn) | inconclusive: 26.9 µM [inhibitor, partial curve, poor fit]
45 | CC(=O)Cc1nsc(NC(=O)c2cccc(F)c2)n1 | inconclusive: 21.3 µM [inhibitor, partial curve, poor fit]
46 | COc1cc(OC)cc(C(=O)Nc2ccc(S(=O)(=O)Nc3nc(C)cc(C)n3)cc2)c1 | inconclusive: 26.9 µM [inhibitor, partial curve, poor fit]
47 | Cc1nc2c(-c3ccccc3)c[nH]n2c(=O)c1Cc1ccccc1 | active: 26.9 µM
48 | Cn1c(CCCOc2ccc(Cl)cc2Cl)n[nH]c1=S | inconclusive: 30.1 µM [inhibitor, single point]
49 | COc1ccc(CCNC(=O)CSc2nnc(-c3ccco3)c(-c3ccco3)n2)cc1OC | inconclusive: 23.9 µM [inhibitor, partial curve, poor fit]
50 | CC(C)CCNC(=O)CN1N=C(c2ccc(Cl)cc2)CCC1=O | inactive

Row | SMILES | Potency
51 | O=C(C[n+]1cc(-c2ccc(F)cc2)n2c1CCC2)N1c2ccccc2Sc2ccccc21 | active: 2.39 µM
52 | O=c1[nH]cnc2scc(-c3ccc(-c4ccccc4)cc3)c12 | active: 1.2 µM
53 | CCc1ccccc1NC(=O)c1cnc2sc(N3CCCC3)nn2c1=O | inactive
54 | Cc1cc(C(=O)COc2ccccc2C(N)=O)c(C)n1C1CC1 | active: 15.1 µM
55 | COc1cc2[nH]c(C(=O)Nc3ccc4c(c3)OCCO4)cc2c(OC)c1OC | active: 8.49 µM
56 | O=C(Nc1cccc(Cl)c1)c1cc2c(=O)[nH]c3ccccc3c2s1 | inconclusive: 7.57 µM [inhibitor, partial curve, poor fit]
57 | CCOC(=O)c1sc(S(C)(=O)=O)c2c1CCc1conc1-2 | inactive
58 | CN1CCN(NC(=O)c2cn(-c3ccccc3)nc2-c2cccs2)CC1 | inconclusive: 23.9 µM [inhibitor, single point]
59 | COc1cccc(C(=O)Nc2cccc(-c3cn4c(C)csc4n3)c2)c1OC | active: 7.57 µM
60 | CCCCC(CC)C(=O)Nc1ccc(C)c(O)c1 (stereo not drawn) | inactive
61 | O=C(/C=C/c1ccc2c(c1)OCO2)c1ccccn1 | active: 0.338 µM
62 | CC(NS(=O)(=O)c1ccc(OCC(=O)NCc2cccnc2)cc1)c1ccccc1 (stereo not drawn) | inactive
63 | Cc1cccc(Nc2nc(N)c([N+](=O)[O-])c(NCCO)n2)c1 | inconclusive: 21.3 µM [inhibitor, partial curve, poor fit]
64 | O=C(CCN1C(=O)/C(=C/c2cccs2)SC1=S)Nc1ccc(C(=O)O)cc1 | inconclusive: 37.9 µM [inhibitor, single point]
65 | CC(C)(C)SCCNC(=O)c1ccc(Cl)c([N+](=O)[O-])c1 | inactive
66 | CC1(c2ccccc2Cl)NC(=O)N(CC(=O)c2ccc3c(c2)OCO3)C1=O (stereo not drawn) | inconclusive: 26.9 µM [inhibitor, partial curve, poor fit]
67 | COc1ccccc1NC(=S)Nc1ccc2cn[nH]c2c1 | inconclusive: 21.3 µM [inhibitor, partial curve, poor fit]
68 | Cc1ccc2nc(-c3cccc(Br)c3)cc(C(=O)Nn3cnnc3)c2c1 | active: 0.536 µM
69 | Cc1ccc(OCC(=O)Nc2cc(C)on2)c([N+](=O)[O-])n1 | inconclusive: 23.9 µM [inhibitor, single point]
70 | COc1cccc(C(=O)CSc2nnc(-c3cc(OC)cc(OC)c3)o2)c1 | inactive
71 | Cc1ccccc1C(=O)N1CCC(C(=O)N2CCCc3ccccc32)CC1 | inconclusive: 21.3 µM [inhibitor, single point]
72 | COC(=O)C1C(O)=C(C=Nc2ccc3ccccc3c2)C(=O)CC1(C)C (stereo not drawn) | inconclusive: 26.9 µM [inhibitor, single point]
73 | Cc1cnc(NC(=O)c2c(Cl)cnn2C)s1 | inactive
